Laboratory results taken from the antibiotic and cytotoxicity screens of Wong et al. (2023).
Some of the results follow.

Tests used:
HSkMC = human skeletal muscle cells; experiment: cytotoxicity call (relative viability < 0.9); conditions: 10 µM
HepG2 = experiment: cytotoxicity call (relative viability < 0.9); conditions: 10 µM
S. aureus RN4220 = experiment: growth inhibition call (relative growth <= 0.2); conditions: 50 µM

C[C@@H]1CN([C@@H](C)CO)C(=O)c2cc(NC(=O)c3ccncc3)ccc2O[C@@H]1CN(C)Cc1ccc2c(c1)OCO2
inactive: cytotoxicity call (HSkMC) | cytotoxicity call (HepG2) | growth inhibition call (S. aureus RN4220)

OC[C@H]1CCCN1CC1CC1
inactive: cytotoxicity call (HSkMC) | cytotoxicity call (HepG2) | growth inhibition call (S. aureus RN4220)

CC(C)NC(=O)Nc1cccc2c1O[C@@H](CN(C)S(=O)(=O)c1ccccc1)[C@@H](C)CN([C@@H](C)CO)C2=O
inactive: cytotoxicity call (HSkMC) | cytotoxicity call (HepG2) | growth inhibition call (S. aureus RN4220)

O=C(C[C@@H]1CC[C@H]2[C@@H](COC[C@H](O)CN2S(=O)(=O)c2ccc(F)cc2)O1)NCCN1CCCCC1
inactive: cytotoxicity call (HSkMC) | cytotoxicity call (HepG2) | growth inhibition call (S. aureus RN4220)

COc1ccc(CN(C)C[C@@H]2OCCCC[C@@H](C)Oc3ccc(NC(=O)Nc4ccccc4)cc3C(=O)N([C@@H](C)CO)C[C@H]2C)cc1
inactive: cytotoxicity call (HSkMC) | cytotoxicity call (HepG2) | growth inhibition call (S. aureus RN4220)

C[C@H](CO)N1C[C@H](C)[C@@H](CN(C)C(=O)Nc2ccc(C(F)(F)F)cc2)OCc2cn(nn2)CCCC1=O
inactive: cytotoxicity call (HSkMC) | cytotoxicity call (HepG2) | growth inhibition call (S. aureus RN4220)

C[C@H](CO)N1C[C@H](C)[C@H](CN(C)S(=O)(=O)c2ccc(C#N)cc2)Oc2ncc(-c3ccccc3)cc2C1=O
inactive: cytotoxicity call (HSkMC) | cytotoxicity call (HepG2) | growth inhibition call (S. aureus RN4220)

C[C@H]1CN([C@@H](C)CO)C(=O)c2cccc(NS(C)(=O)=O)c2O[C@@H]1CN(C)S(=O)(=O)c1ccc(F)cc1
inactive: cytotoxicity call (HSkMC) | cytotoxicity call (HepG2) | growth inhibition call (S. aureus RN4220)

CCCC#Cc1ccc2c(c1)O[C@@H](CN(C)C(=O)c1cnccn1)[C@@H](C)CN([C@H](C)CO)S2(=O)=O
inactive: cytotoxicity call (HSkMC) | cytotoxicity call (HepG2) | growth inhibition call (S. aureus RN4220)

C[C@H](CO)N1C[C@H](C)[C@H](CN(C)Cc2ccc(C(=O)O)cc2)OCCCC[C@H](C)Oc2ccc(NC(=O)Nc3ccc4c(c3)OCO4)cc2C1=O
inactive: cytotoxicity call (HSkMC) | cytotoxicity call (HepG2) | growth inhibition call (S. aureus RN4220)
